Data taken from paper PMC4336329 (PLoS ONE, 2015).
About 14,000 (4.5%) of roughly 310,000 compounds showed an effect of 50% or more. Effects have a minus sign here. This is one part of the list.

Biological target: human ether-à-go-go-related gene (hERG) potassium channel (human, UniProt Q12809)
Test: primary screen, population patch clamp on CHO cells stably expressing hERG
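Note: peak tail current of the secondary pulse compared with the same well before compound.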

Sequence of human ether-à-go-go-related gene (hERG) potassium channel (Q12809 whole entry, looked up): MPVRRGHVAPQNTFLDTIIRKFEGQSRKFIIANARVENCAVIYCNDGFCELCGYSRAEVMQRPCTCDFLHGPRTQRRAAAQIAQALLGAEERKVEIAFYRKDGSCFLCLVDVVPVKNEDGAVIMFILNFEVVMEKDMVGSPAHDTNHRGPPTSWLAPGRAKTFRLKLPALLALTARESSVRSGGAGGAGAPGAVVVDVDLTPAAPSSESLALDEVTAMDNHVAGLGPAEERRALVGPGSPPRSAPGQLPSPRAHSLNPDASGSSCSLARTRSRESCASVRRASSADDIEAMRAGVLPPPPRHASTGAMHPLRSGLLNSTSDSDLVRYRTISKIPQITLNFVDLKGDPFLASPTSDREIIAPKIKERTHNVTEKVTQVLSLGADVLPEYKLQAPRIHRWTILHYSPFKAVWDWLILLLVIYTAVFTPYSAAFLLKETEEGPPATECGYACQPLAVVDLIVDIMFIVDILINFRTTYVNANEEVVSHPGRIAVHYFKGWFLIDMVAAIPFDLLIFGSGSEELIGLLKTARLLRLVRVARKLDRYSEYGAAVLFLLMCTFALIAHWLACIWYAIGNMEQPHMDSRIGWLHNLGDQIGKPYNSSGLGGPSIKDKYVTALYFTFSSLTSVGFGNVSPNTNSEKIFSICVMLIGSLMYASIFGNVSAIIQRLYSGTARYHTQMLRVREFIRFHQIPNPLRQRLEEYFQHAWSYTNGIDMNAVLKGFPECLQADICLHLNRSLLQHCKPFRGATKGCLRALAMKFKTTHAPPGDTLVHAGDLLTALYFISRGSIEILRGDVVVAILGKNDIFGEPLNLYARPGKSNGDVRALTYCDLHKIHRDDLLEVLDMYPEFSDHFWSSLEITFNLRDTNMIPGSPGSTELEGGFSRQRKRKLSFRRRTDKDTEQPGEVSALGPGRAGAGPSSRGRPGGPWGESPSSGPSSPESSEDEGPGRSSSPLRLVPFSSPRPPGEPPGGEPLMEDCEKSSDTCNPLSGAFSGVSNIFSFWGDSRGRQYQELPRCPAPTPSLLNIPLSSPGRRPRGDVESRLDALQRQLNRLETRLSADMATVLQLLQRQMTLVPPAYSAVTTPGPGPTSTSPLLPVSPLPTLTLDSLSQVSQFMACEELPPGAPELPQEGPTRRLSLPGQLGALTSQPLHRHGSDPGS

Structure (SMILES)	hERG current change (%, negative = inhibition) at 10uM [%]
CN1CCN(S(=O)(=O)c2cccc(C(=O)Oc3ccccc3Cl)c2)CC1	-9.53
Cc1ccc(C(=O)NCc2ccccn2)cc1S(=O)(=O)N1CCOCC1	8.99
Cc1ccccc1N(CC(=O)NCCc1ccccc1)C(=O)CCC(=O)Nc1ccccn1	-1.2
CCN(CC)C(=O)CSc1nnc(-c2ccc(F)cc2)n1N	-3.01
COc1ccc(C2C(C#N)=C(N)N(N(C)C)C3=C2C(=O)CC(C)(C)C3)cc1OC (stereo not shown)	-9.6
CCCCSc1nc(C)cc(SCC(=O)N/N=C/c2cccc(OC)c2O)n1	1.63
CCn1c(=O)c2c(O)cc(=O)oc2c2ccccc21	1.86
Cc1ccc(-c2nn(-c3ccccc3)cc2/C=N/NS(=O)(=O)c2ccccc2)cc1	9.71
COc1ccccc1C(=O)NC(=S)Nc1ccccc1N1CCCC1	5.05
CCC(=O)N1N=C2C3CCN(CC3)C2C1c1ccc(C)cc1 (stereo not shown)	10.1
COc1cccc(C(=O)N/N=C/c2ccc(Oc3ccc([N+](=O)[O-])cn3)c(OC)c2)c1	-27.2
O=C(CNCc1cccc(Cl)c1)N1CCc2ccccc2C1	-18.5
COc1cc(NC(=O)Cc2cccs2)ccc1-n1cnnn1	9.4
COc1ccc(OC)c(N(CC(=O)N2CCCC2)S(=O)(=O)c2ccc(C)cc2)c1	5.52
Cc1nc(Nc2ccc3c(c2)OCCO3)c2c(C)c(C)sc2n1	-18.5
Nc1ccc(C(=O)N/N=C/c2c[nH]c3ccccc23)cc1	13.9
Cc1cc(-c2ccco2)n(CC(=O)O)n1	-8.68
Cc1ccc(C(=O)N2N=C(CC(C)C)CC2(O)C(F)(F)F)o1 (stereo not shown)	0.179
Cc1nc([N+](=O)[O-])c(Br)n1CC(=O)c1ccc(Br)cc1	-20.1
Cc1nn2cc(-c3ncc(C(F)(F)F)cc3Cl)cnc2c1Br	14.8
Fc1ccccc1/C=C1\CCCC2=C1Nc1nnnn1C2c1ccccc1F (stereo not shown)	-9.01
CC(=O)Nc1ccc(S(=O)(=O)N2CCN(c3cccc(C)c3C)CC2)cc1	11.6

Structure (SMILES)	hERG current change (%, negative = inhibition) at 10uM [%]
CCOC(=O)C1(Cc2cccc(Cl)c2)CCCN(C(=O)c2cc(CC)on2)C1 (stereo not shown)	7.97
COc1cccc(NC(=O)c2cc(-c3ccc(C)o3)nc3ccccc23)c1	11.6
COCCNC(=O)c1ccccc1NC(=O)CN(c1ccc2c(c1)OCO2)S(C)(=O)=O	-7.28
CCOC(=O)c1ccccc1NC(=O)c1c(N)n(C)c(=O)[nH]c1=O	0.691
O=C(Nc1cc(Cl)cc(Cl)c1)c1cnn2cccnc12	9.31
COc1ccc(CC(=O)NCc2nnc(SCC(=O)c3ccc(OC)cc3)n2C)cc1	-3.61
Cn1c(CCNC(=O)c2ccccc2)nc2cc(NC(=O)C3CCCCC3)ccc21	11.1
COc1ccc(NC(=O)C(CCS(C)(=O)=O)N2C(=O)c3ccccc3C2=O)cc1 (stereo not shown)	-18.1
CC(=O)Nc1cccc(-c2nnc(-c3ccccc3)o2)c1	1.26
COc1cccc(NC(=O)C2CCC(CNC(=O)[C@@H]3Cc4ccccc4CN3)CC2)c1 (stereo partly shown)	-3.01
COc1cccc(CCN2CCC(CNS(=O)(=O)c3cc(-c4cc(C)no4)ccc3OC)CC2)c1	-74.9
Cc1nn(Cc2ccccc2Cl)c(C)c1C(=O)NCCN1C(=O)S/C(=C\c2ccccc2)C1=O	3.28
Cc1ccc(C(O)(CNCc2ccccc2)c2ccccc2)cc1 (stereo not shown)	-33.9
CCN(CC)S(=O)(=O)c1ccc(N2CCOCC2)c(NC(=O)Cc2ccc(Cl)cc2)c1	-26.9
Cc1ccc(-n2ncc3c(NNC(=O)Cc4ccccc4)ncnc32)cc1	10.1
CCC(C)NS(=O)(=O)c1ccc(F)c(C(=O)Nc2c(F)cc(F)cc2Br)c1 (stereo not shown)	-60.8
CC(C)CN(C(=O)CSc1nc2ccccc2c(=O)n1C)C1CCS(=O)(=O)C1 (stereo not shown)	-46.6
CCOc1ccc(NC2=C(Cl)C(=O)N(C3CCCCC3)C2=O)cc1	3.08
COc1ccc(OC)c(CN2CCN(C(=O)c3cc(S(=O)(=O)Nc4ccccc4OC)ccc3C)CC2)c1	-36.8
CC(=O)Nc1ccc(SCc2csc(C)n2)cc1	12.6
CSc1ccccc1OCc1cc(C(=O)NCc2cccc(C)n2)no1	14.5
COc1ccc(N(Cc2ccccc2)S(=O)(=O)c2cccc(C(=O)O)c2)cc1	13.4

Structure (SMILES)	hERG current change (%, negative = inhibition) at 10uM [%]
N=c1oc2ccc3ccccc3c2cc1C(N)=S	10.3
CCOc1ccccc1NC(=O)c1ccc(S(=O)(=O)N(C)C)cc1	-19.7
COc1ccc(Nc2nc(N3CCN(S(=O)(=O)N(C)C)CC3)nc3ccccc23)cc1	-5.03
O=C(Nc1ccccc1)c1ccc(Cn2cc(C(F)(F)F)ccc2=O)cc1	-14
O=C(NC1CCN(S(=O)(=O)c2ccccc2F)CC1)c1ccco1	-4.61
CCCn1c(N)c(Sc2ccc([N+](=O)[O-])cc2)c(=O)n(CCC)c1=O	-83.8
O=C(NC1CCN(C(=S)NCCc2ccccc2)CC1)C1CC1	-18.4
CC(=O)Nc1cccc(NC(=O)C2C3C=CC(C3)C2C(=O)O)c1 (stereo not shown)	18.7
CN(C)c1ccc(/C=N/NC(=O)Cn2nnc3ccccc32)cc1	1.44
CC1(C)NC(=O)N(CC(O)COc2ccc(N3C(=O)c4ccccc4C3=O)cc2)C1=O (stereo not shown)	6.56
COc1cc(-c2cc(C(=O)Nc3ccc(N4CCOCC4)cc3)c3ccccc3n2)cc(OC)c1OC	6.95
CC(C)NC(=O)c1onc(CSc2ccc(Cl)cc2)c1C(=O)NC(C)C	-23.1
CC(=O)c1ccc(N2CCN(C(=O)c3cn(Cc4ccccc4)nc3-c3cccnc3)CC2)c(F)c1	-50.2
COc1ccc(C(=O)CSc2cc(C)nc(SCC(=O)c3ccc(C)cc3)n2)cc1	8.17
CCOC(=O)N1CCN(C(=O)c2ccccc2-c2ccccc2)CC1	14.5
Cc1cccc(NC(=O)C2C(C(=O)O)C3C=CC2C32CC2)c1C (stereo not shown)	-4.79
O=C(Nc1nnc(SCCC2OCCO2)s1)C1CC(=O)N(c2ccccc2)C1 (stereo not shown)	-26.5
Cc1ccc(C(=O)OCC(=O)Nc2ccccc2)cc1S(=O)(=O)N1CCCCC1	1.85
COCCCN(C(C)=O)c1nc(-c2ccc(OC)cc2)cs1	-16.5
CCn1c(=O)n(CC)c2cc(S(=O)(=O)N3CCCCC3)c(C)cc21	-0.0962
Oc1ccc(/C=C/c2ccnc3ccccc23)cc1	8.68
COc1ccc(S(=O)(=O)N2CCC(C(=O)NC3CC3)CC2)cc1	9.61

Structure (SMILES)	hERG current change (%, negative = inhibition) at 10uM [%]
CC(C)(C)c1ccc(/C=C/C(=O)O)s1	10.2
N#CC(=C=[N-])c1nc2ccccc2nc1-[n+]1cccc(NC(=O)c2ccc(F)cc2)c1	17.4
O=C(O)C1C2CCC(O2)C1C(=O)Nc1ccc(Br)cc1F (stereo not shown)	17.3
CC(=O)Nc1ccc(S(=O)(=O)N2CN(c3ccc(C)cc3)c3nc4ccccc4nc32)cc1	6.22
COc1cccc(NC(=O)C(NCC(C)(C)CN(C)C)c2ccccc2)c1.O=C(O)C(=O)O (stereo not shown)	-48.4
Cc1ccc(C(=O)N2CCN(c3ccccn3)CC2)cc1C	-5.19
Clc1ccc2oc(SCc3cccnc3)nc2c1	-16.2
C=CCn1cc(-c2ccc(Cl)cc2)cc(C#N)c1=O	-7.98
Cc1ccc(S(=O)(=O)N(C)CC(O)Cn2c3ccccc3c3ccccc32)cc1 (stereo not shown)	17.5
CCc1ccc(N2CSC3=C(C#N)C(c4cccs4)CC(=O)N3C2)cc1 (stereo not shown)	-3
CN(CC(=O)Nc1ccccc1Cl)C(=O)c1ccc(-c2cccc(C(F)(F)F)c2)o1	-10.2
O=C(COc1ccc(/C=N/NC(=O)c2ccncc2)cc1)Nc1ccc([N+](=O)[O-])cc1	-9.27
CCN(CC(=O)NCc1cccs1)C(=O)COc1cccc(C(F)(F)F)c1	-38.2
CCS(=O)(=O)N1CCN(S(=O)(=O)c2ccc(F)cc2)CC1	-18.4
COc1ccccc1N1CCN(CCCn2c(=S)[nH]c3ccccc3c2=O)CC1	-61.6
Cc1ccc(N2CCN(C(=S)Nc3ccc(Cl)cc3)CC2)cc1	20.4
O=[N+]([O-])/C(C(Cl)=C(Cl)Cl)=C(/NC1CC1)Sc1ccccc1	7.59
Clc1ccc(-c2nnc(CSc3nnc(-c4cccs4)o3)o2)cc1	-4.24
CCN1CCN(C(c2cccs2)C(C)NC(=S)Nc2cc(C)ccc2C)CC1 (stereo not shown)	-68.5
